We go through 91 molecules from PubChem BioAssay AID463173 (ICCB-Longwood Screening Facility, Harvard Medical School, 2010).

Screen size: about 52,000 compounds; about 1,700 (3.3%) were called active. No stated cut-off is given here; in the data, active means survival mostly below about 52% (no sharp cut-off); inactive means mostly above about 56%. The list shows a part of the results.

The assay concerns Wild type. Description: growth inhibition of S. aureus wild type versus tarO mutant, primary screen, teichoic acid synthesis inhibitors, RN4220, OD600 (AID 463173). The settings on record: S. aureus RN4220 wild type/DeltatarO growth, OD600, 18 h, hits give low values, screened at 18.75 µg/mL (by protocol).
Take `O=c1c2c(nc3cc(-c4cccc(Cl)c4)[nH]n13)CCCC2`: the survival is inactive: 93%. With `Cc1cc2c(cc1S(=O)(=O)CCC(=O)N(C)C1CCCCC1)OCC(=O)N2`, the survival was inactive: 85%. As for `CCCCN1C(=O)CN(C2CCCCCC2)C(=O)C1c1ccc(OCC)c(OC)c1` (stereo unspecified), the survival is inactive: 78%. Under `COCCN(Cc1ccco1)C(=O)Cn1ncc2c([nH]c3ccccc32)c1=O` stands inactive: 79%. For `COc1cccc(NC(=O)CCc2nc(-c3ccc(C(C)(C)C)cc3)no2)c1` the value was inactive: 91%; for `Cc1ccc(-c2nnn3c2nc(NCCc2ccccc2)c2ccccc23)cc1`, inactive: 87%. For `CN(c1ncnc2c1c(-c1ccccc1)cn2-c1cccc(Cl)c1)C1CCCCC1` the value was inactive: 89%. For `CN1CCc2c(sc3nc(=S)[nH]c(N)c23)C1`, the survival is inactive: 109%. Under `O=C(c1ccco1)N1CCN(c2c3c(nc4cc(-c5cccc(F)c5)nn24)CCCC3)CC1` stands inactive: 113%. As for `COCC(C)NCc1cc(F)ccc1F` (stereo unspecified), the survival was inactive: 109%. With `Cc1cccc(-n2c(=O)c3c(c4cc(C)ccc4n3C)n(C)c2=O)c1`, the survival is inactive: 74%.

Consider `CCc1ccc(CN(Cc2ccco2)C(=O)COc2ccccc2Cl)cc1`, for which the survival is inactive: 85%. For `Cc1ccc(-c2nnc(Nc3cccc(Br)c3)c3ccccc23)cc1S(=O)(=O)N1CCCCC1` the value was inactive: 90%. Regarding `Cc1ccc(C)c(C(=O)CSc2nc(-c3ccccc3)nc3c2CCCC3)c1`, the survival was active: 6%.

For `Cc1c(Cl)cccc1NC(=O)N1CCC(CN2CCOCC2)CC1`, the survival is inactive: 85%.

On to `O=C(NC1=NCCS1)c1ccccc1`, for which the survival was inactive: 107%. Under `CC(C)C(=O)Nc1nnc(S(=O)(=O)N(C)Cc2ccc(F)cc2)s1` stands inactive: 87%; under `CCOc1ccccc1NC(=O)C1CCCN(c2ncnc3onc(-c4ccc(F)cc4)c23)C1` (stereo unspecified), inactive: 58%; under `COc1ccc(NC(=O)C2CCN(S(=O)(=O)c3cn(C)cn3)CC2)cc1Cl`, inactive: 73%. For `CC(=O)OCc1cnc(C)c2oc(=O)c(C(=O)Nc3cc(F)ccc3C)cc12` the value was inactive: 137%. Consider `O=C(c1ccc([N+](=O)[O-])cc1)N(Cc1ccco1)c1ccccn1`, for which the survival was inactive: 83%. For `COc1ccc(C2C(C(=O)Nc3ccc(C)cc3C)=C(C)Nc3nc(SC)nn32)cc1OC` (stereo unspecified), the survival was inactive: 71%. Under `Cc1ccc(NC(=O)CSc2nnc(COc3ccc(Cl)cc3)o2)cc1` stands inactive: 87%; under `O=S1(=O)CCC(NCc2ccccc2)C1` (stereo unspecified), inactive: 109%; under `NC(=O)CN1C(=O)C2(SCC(=O)N2c2cccc(F)c2)c2ccccc21` (stereo unspecified), inactive: 74%. Consider `CCCCn1c(=O)c2oc3ccccc3c2n(Cc2ccc(OC)cc2)c1=O`, for which the survival was inactive: 115%.

`Cc1cc(C)cc(NC(=O)c2cn3c4c(ccc(Cl)c4c2=O)OC(C)C3)c1` (stereo unspecified): the survival is inactive: 90%. As for `COc1ccc(S(=O)(=O)Nc2ccc3c(c2)sc(=O)n3C)cc1Cl`, the survival is inactive: 127%. For `Cc1cccc2cc(CN(Cc3ccco3)C(=O)c3ccccc3)c(=O)[nH]c12` the value was inactive: 104%. Under `CCOC(=O)CCSc1nc(C)cc(C(F)(F)F)c1C#N` stands inactive: 106%.

`COc1ccccc1CNC(=O)c1ccc(-c2nc(CS(=O)c3ccc(C)cc3)c(C)o2)cc1` (stereo unspecified): the survival is inactive: 131%. Under `CCOc1ccc(OCCOCCn2c(-c3ccc(Cl)cc3)nc3ccccc3c2=O)cc1` stands inactive: 39%; under `COc1ccc(Nc2ncnc3c2cnn3-c2cc(Cl)ccc2C)cc1OC`, inactive: 76%; under `Cc1cccc(-c2nc(SCCCOc3cc(C)c(Cl)c(C)c3)n3[nH]c(=O)cc3n2)c1`, inactive: 73%. Under `COc1ccc2c(c1)c1c(c(=O)n(CCc3ccccc3)c(=O)n1Cc1cccc(C)c1)n2C` stands inactive: 81%; under `CCOC(=O)c1ccc(NC(=O)CCCn2nc(C)c3sc4ccccc4c3c2=O)cc1`, inactive: 92%; under `CSc1ncc(C(=O)NCc2ccc(F)cc2)c(-c2ccccc2)n1`, inactive: 87%. With `CCCCN(CC)CCCNC(=O)Cn1nc(CC)n2c(cc3sccc32)c1=O`, the survival is inactive: 81%. Under `COC(=O)CC(=O)CSc1nc2cc(C(=O)NC(C)C)ccc2c(=O)n1CCc1ccccc1` stands inactive: 78%. Turning to `CNc1nc(SCc2ccccc2)nc(N2CCOCC2)n1`, the survival was inactive: 110%.

As for `CCCc1oc2ccc(NS(=O)(=O)c3ccc(OCC)cc3)cc2c1C(=O)OCC`, the survival was inactive: 44%. On to `O=C(Cc1ccc(-c2ccccc2)cc1)NCCS(=O)(=O)N1CCN(c2cccc(Cl)c2)CC1`, for which the survival was inactive: 64%. For `CS(=O)(=O)c1ncc(Cl)c(C(=O)N2CCN(c3cccc(Cl)c3)CC2)n1` the value was inactive: 38%; for `Cc1nc2cc(-c3ccc(Cl)cc3)nn2c(C)c1CCC(=O)N1CCN(c2ccccc2)CC1`, inactive: 123%. Under `O=C(CN1C(=O)COc2ccc(S(=O)(=O)N3CCOCC3)cc21)NCc1ccc(Cl)cc1` stands inactive: 78%; under `CCN(C(=O)CSc1nnc(-c2cc3occc3n2C)n1-c1ccccc1C)c1ccccc1`, inactive: 129%.

Take `CCOc1ccc(Nc2sc(C(=O)c3ccc(F)cc3)c(N)c2S(=O)(=O)c2ccc(C)cc2)cc1`: the survival is inactive: 64%. On to `Cc1oc2ncn(CC(C)C)c(=O)c2c1C(=O)NCc1cccc(Cl)c1`, for which the survival was inactive: 71%. Take `Cc1ccc(-c2onc(C)c2C)cc1S(=O)(=O)N1CCC(C)CC1`: the survival is inactive: 82%. Turning to `Cc1ccc(Cn2c(C(=O)Nc3ccc(Cl)cc3)cc3sccc32)cc1`, the survival is inactive: 122%.

On to `CC(C)Oc1ccc(CNC(=O)c2cc3cccc4c3n2CC(C)S4)cc1` (stereo unspecified), for which the survival is inactive: 90%. With `CCc1ccc(-c2nc3c(c(SCc4ccccc4)n2)Cc2c(CO)cnc(C)c2O3)cc1`, the survival was inactive: 89%. Consider `CCN1/C(=C\C(=O)C2CC2)Sc2ccccc21`, for which the survival is inactive: 112%. `CCOc1ccc(C2C(=O)N(C3CCCCC3)CC(=O)N2Cc2ccccc2OC)cc1OC` (stereo unspecified): the survival is inactive: 66%. With `COc1cc(Cl)c(C)cc1NC(=O)CNC(=O)Cn1ccc2ccccc2c1=O`, the survival is inactive: 65%. As for `COc1ccccc1N(CC(=O)NC1CCCCC1)C(=O)c1csnn1`, the survival was inactive: 104%.

On to `COc1ccc(Cl)cc1NC(=O)c1ccc(CN2C(=O)CCn3nc(C)cc32)cc1`, for which the survival is inactive: 65%.

`Cc1ccc(C)c(NC(=O)CSc2nc(=O)n(CCN3CCOCC3)c3c2CCC3)c1`: the survival was inactive: 77%. On to `COc1cc2c(cc1OC)C(COc1ccc3c(C)cc(=O)oc3c1)N(C(=O)c1ccc(C)cc1)CC2` (stereo unspecified), for which the survival is inactive: 72%. Under `COc1ccc(C2c3c(n(C)c4ccccc34)C(=O)N2CC(=O)Nc2c(C)cc(C)cc2C)cc1` (stereo unspecified) stands inactive: 66%; under `CC(C)Cn1cc(NC(=O)NCc2ccc(Cl)cc2)c2ccccc2c1=O`, inactive: 88%. For `CCC(=O)N1c2ccccc2CC1C(=O)NCCCN1CCN(c2cccc(Cl)c2)CC1` (stereo unspecified) the value was inactive: 80%; for `COc1ccc(Br)c2c1-c1nc(NC(=O)c3ccc(F)cc3)sc1C2`, inactive: 91%; for `CCOC(=O)N1CCC(NC(=O)c2ccc3c(c2)N(Cc2ccccc2)C(=O)c2ccccc2S3(=O)=O)CC1`, inactive: 81%.

As to `CCOc1ccccc1CNC(=O)C(CC)n1nc(C)c2c(C)n(-c3ccccc3)nc2c1=O` (stereo unspecified), the survival is inactive: 88%. As for `Cc1c(C(=O)NCc2ccccc2Cl)sc2nc3n(c(=O)c12)CCCC3`, the survival was inactive: 78%.

As for `O=C(Nc1ccc(Cl)cc1)c1ccc2oc(=O)n(Cc3ccccc3)c2c1`, the survival was inactive: 63%. Regarding `Cc1ccc2c(c1)C(=O)OC(C(=O)Nc1ccc(C(=O)O)cc1)C2` (stereo unspecified), the survival is inactive: 79%. Under `COCCCNc1nc2c(c(=O)n(Cc3ccccc3)c(=O)n2C)n1C` stands inactive: 90%.

`COc1ccc(C(=O)CN2CCN(S(=O)(=O)c3ccc(F)cc3)CC2)cc1`: the survival is inactive: 89%. `CC(=O)OC1=C(C(C)=O)N(Cc2ccccc2)S(=O)(=O)c2ccccc21`: the survival is inactive: 71%. For `Cc1cc(NC(=O)c2ccc(F)cc2)ccc1-c1cc2ccccc2oc1=O` the value was inactive: 81%; for `Cc1ccc(Cl)cc1NC(=O)c1csnn1`, inactive: 85%. Regarding `COc1ccc(-c2cn3c(n2)sc2cc(C(=O)Nc4ccc(F)cc4)ccc23)cc1`, the survival is inactive: 88%. Take `CC(=O)N1CCC2(CC1)OC(=O)C(C)=C2C(=O)NCc1ccccc1Cl`: the survival was inactive: 70%. For `CCCCSc1nnc2[nH]c(=O)cc(C)n12`, the survival is inactive: 95%. `O=C(c1cc(-c2ccc(Br)cc2)n[nH]1)N1CCN(S(=O)(=O)c2ccc(Br)s2)CC1`: the survival is inactive: 78%. As to `CC1CCN(C(=O)CCS(=O)(=O)c2cc3c(cc2Cl)NC(=O)CO3)CC1`, the survival was inactive: 110%. Take `CCOC(=O)c1nnn(CC(=O)NC(=O)Nc2ccccc2F)c1C(=O)OCC`: the survival was inactive: 88%. Take `Cc1cccc(CC(=O)NC2CC(=O)N(c3ccc4c(c3)OCCO4)C2)c1` (stereo unspecified): the survival was inactive: 71%. For `Fc1ccc(Nc2nc(SCc3cccc(F)c3)nc3ccccc23)cc1` the value was inactive: 78%.

Turning to `O=c1cc(O)n(-c2ccccc2)c(=S)[nH]1`, the survival is inactive: 99%.

Turning to `CCOc1ccc(Nc2nc(N)c(C(=O)c3ccccc3Cl)s2)cc1`, the survival was active: -2%.

For the molecule `CCN(CC)S(=O)(=O)c1ccc(NC(=O)c2nn(C)c3c2CSc2ccccc2-3)cc1`, the survival was inactive: 84%. Under `CCC(=O)N1CCc2cc(Br)cc(S(=O)(=O)CCC(=O)Nc3ccc(CC)cc3)c21` stands inactive: 88%; under `Cc1ccccc1CSc1ncc(Cl)c(C(=O)NCc2ccccc2)n1`, inactive: 93%; under `CCOC(=O)c1ccc(N2C(=O)c3[nH]nc(-c4ccc(C)cc4)c3C2c2ccc(O)cc2)cc1` (stereo unspecified), inactive: 87%. On to `COc1ccc(NC(=O)C(NC(=O)Cc2cccs2)c2ccc(OC)cc2)cc1` (stereo unspecified), for which the survival was inactive: 151%. For `Cc1cc(Br)cc(C)c1NC(=O)c1cnc2ccccn2c1=O` the value was inactive: 97%; for `COc1cccc(NS(=O)(=O)c2ccc3[nH]c4c(c3c2)CCCCCC4)c1`, inactive: 81%; for `Cn1c(-c2ccccc2)cnc1SCc1ccccc1`, inactive: 119%.
